This data set concerns ATP. The experiment in a line: switch fluorescence ratio, 500 uM ATP over buffer (Cy3 cluster intensity, sum of 5 cycles each) (fold (ratio)); higher = stronger signal-on switching upon ATP binding; sequences stand for … in TCGTCGGCAGCGTCAGATGTGTATAAGAGACAGTTTTTTTTTTTTTTTTTTTTTTTTT…TC. The conditions noted are these: aptamer strand: ATP DNA aptamer (quencher-CACCTGGGGGAGTATTGCGGAGGAAGG + anchor), 100 nM annealed; ATP concentration: 500 uM; one replicate. The gist of the method: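 For every switch-domain sequence, the fluorescence ratio is the mean of per-cluster values, each being summed target-cycle Cy3 intensity over summed buffer-cycle Cy3 intensity. Clusters outside 100-1000 RFU were excluded. On a modified Illumina MiSeq flow-cell, the Cy3-labelled switching-strand clusters were annealed to 100 nM quencher-labelled ATP aptamer, imaged in selection buffer and then after 15 min with 500 uM ATP at 22 °C. Five such cycles were run, with NaOH stripping and re-annealing between them.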

Sequences with one replicate were seen in a single cluster, so their values are uncertain.
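Also: ATP exposure 15 min at 22 °C before imaging.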

For GATATAGACC, the switch fluorescence ratio is 1.14.
As for CAAGTAGAAG, the figure is 0.994; as for GCATAAACGG, 0.956; as for ACGGGAGTAA, 0.858.
As for CATTTGATTT, the figure is 0.995; as for TAACGGTTGG, 1.01; as for AAGTTTCTGA, 0.984.
In the case of ATCTTATTA it was 0.999.
On to GAAATCCAGC, for which the switch fluorescence ratio came out at 0.977.
With TGTTGTAT, the switch fluorescence ratio is 1.
In the case of CGTAGCGGGA it was 1.17; in that of TAACAAACCT, 2.23; in that of GTGATGGCAT, 0.973.
In the case of GAAGCTCAAA it was 1.01.
With TAGTTCCTCC, the switch fluorescence ratio came to 2.17.
As for TAGAGTGTAG, the figure is 1; as for CCGTTGCTAA, 3.55; as for TTTGATGCTG, 1.02.
As for ATTAGGCCT, the figure is 1.02; as for GTTCTGTTAC, 0.998.
For CTTTTGTCGG, the switch fluorescence ratio is 0.988.
Turning to ATCGGCCGGA, the switch fluorescence ratio is 1.02.
As for GGCGGTTTAC, the figure is 1.01; as for TGTGTTGTTA, 0.985.
On to TGCGCCTATG, for which the switch fluorescence ratio was 1.08.
For TCAAGATCTG, the switch fluorescence ratio stood at 0.942.
As for GATTTCGCGA, the figure is 1.08.
Turning to TAGGTCCTGT, the switch fluorescence ratio was determined as 1.
As for AATACGGAGT, the figure is 1.02; as for CACCCTTCGA, 1.07.
As for AAGTTTCGTG, the figure is 1.03; as for GAGGTGGGGT, 1.01; as for CGATCGAGCG, 0.955.
As for CATGAAGAAG, the figure is 1.01; as for TGACTGCTTG, 1.
Take TTTGGGACTA: the switch fluorescence ratio turned out to be 1.
With CTCCTAGCGG, the switch fluorescence ratio came to 1.38.
As for TCCGGTCGTC, the figure is 1.03.
As for ATTGGGCTTT, the figure is 0.965.
In the case of GACGTGAAGT it was 1.03.
GCATCGTTCT: the switch fluorescence ratio amounted to 1.16.
With TGTGATTGAA, the switch fluorescence ratio is 0.971.
In the case of ATAACTAGCG it was 1.03.
In the case of CCACGCGGAA it was 1.14; in that of ACAGTCAGGC, 1.1; in that of TTAACTGTGT, 0.926.
As for ACTTCATCGA, the figure is 1.02; as for TTCAGTCTTT, 1.05.
Take GAAAGCCTAT: the switch fluorescence ratio stood at 1.01.
Consider ATTACAACAC, for which the switch fluorescence ratio was 1.24.
In the case of GCGCTGTCAC it was 1.44; in that of TTCATAGCAA, 1.1.
In the case of CTCTACCTTA it was 1.11; in that of GGTATTACA, 0.994.
As for AGATCGGTCG, the figure is 1.03.
On to GTCTTTTGAC, for which the switch fluorescence ratio was determined as 0.977.
In the case of CCTAGCTAGA it was 1.09.
As for TTCCGCCTA, the figure is 1.55.
For the sequence CTTTCATGAC, the switch fluorescence ratio was found to be 1.02.
As for GTTCACAGCG, the figure is 0.994; as for CATCAAAATG, 0.995.
As to TTGGCATGAT, the switch fluorescence ratio is 0.971.
In the case of ACATCTGTCT it was 1.05.
In the case of GTCGGGCAGG it was 1.01; in that of CCTGCCTGCA, 1.56.
In the case of CGAGGACGGT, the switch fluorescence ratio amounted to 0.96.
In the case of CATGGTGAGA it was 1.02; in that of CCAGCAATTT, 4.73; in that of GATCTTCACG, 0.968.
As for TCGCTGATAG, the figure is 1.77.
In the case of TATAATGAGG it was 0.995; in that of ATGGACGGCC, 0.992.
As for TGGCATCTCA, the switch fluorescence ratio was determined as 1.03.
In the case of GCAGCTTTGA it was 1.07; in that of GGTCTCATCC, 1.03; in that of TATGCTTGCA, 0.988.
As for GCTACCTGTA, the figure is 1.05; as for GTGTTAGAGC, 0.98; as for GGAGCAGCGG, 1.09.
With GTTCTGCTGG, the switch fluorescence ratio was 0.966.
As for CGTCGAATAA, the figure is 1.01; as for GGTGTACGCC, 1.04.
Turning to ACAGAGCGGG, the switch fluorescence ratio amounted to 1.01.
As for AGCGATTGAA, the figure is 1.02.
As to GACGGAAACT, the switch fluorescence ratio was 1.33.
As for GCATAGTGGC, the figure is 0.981.
As for GTCGGTAAGA, the figure is 0.995.
In the case of ACTTGTTGAA it was 1.01.
As for TTGAACGCTA, the switch fluorescence ratio worked out at 2.29.
As for ATGGCGGTTG, the figure is 0.988; as for GAGCCGTTGA, 0.981.
Turning to TGGGACGCGT, the switch fluorescence ratio stood at 1.03.
As for TATTTCAAGC, the figure is 1.01; as for CCCGGCCGAT, 1.03; as for TTATTACATT, 1.03.
In the case of GGGCGATAGA it was 1.05; in that of GTCAAAAAA, 0.964.
In the case of CAAGCAGGTA it was 1.02; in that of ACGGTCATGC, 1.19; in that of TATGGGTATT, 0.988.
Regarding ACCAATTGAT, the switch fluorescence ratio was found to be 1.05.
In the case of TTCGCCGAGT it was 1.01.
As for GTGCGCGGGC, the figure is 1.03.
Consider CTTGACATTG, for which the switch fluorescence ratio worked out at 0.989.
Turning to ATGCAGGTCG, the switch fluorescence ratio turned out to be 0.975.
In the case of AGGGGACCCT it was 1.01; in that of ATACTAGCGC, 0.993; in that of TGCAGTATAG, 1.
As for AATCCTTGCT, the figure is 1.22; as for GCAGAATTGC, 0.98; as for GGGCTTTCGG, 0.985.
On to TGCGAGACAA, for which the switch fluorescence ratio is 1.24.
As for TGGCGGCAGG, the figure is 1.04; as for CGGCCACGGA, 1.01; as for TGTTGCAACT, 0.995.
As for ACTATTCCTG, the figure is 0.989; as for CGGGAAGTAT, 0.976.
In the case of TTTGAGCCGC it was 1.03; in that of CCTTCGTTAG, 3.09; in that of AAGTAGCAAT, 3.11.

The values are drawn from the supplement of paper PMC10126150.
